Consider 54 compounds from PubChem BioAssay AID1645887 (National Center for Advancing Translational Sciences (NCATS), 2021).

Values joined by “and” are separate entries in the source; they are usually repeats but may differ in a detail not shown here. Equal entries are not always repeated. In all, about 16,000 compounds went through this assay and about 40 (0.2%) were called active. Another 1% or so got no clear call; they are omitted. Calls come from the whole dose curve; as a rule, active = well fitted activation curve with a large enough effect; inconclusive = small, poorly fitted or top-dose-only effect, or another doubt; inactive = no such curve, though single readings can be large or run the other way. Some of the results follow.
% is set by controls: 0 for no effect and ±100 for the full control effect.

Sequence of UniProt Q8WZA2 (Q8WZA2 whole entry, looked up): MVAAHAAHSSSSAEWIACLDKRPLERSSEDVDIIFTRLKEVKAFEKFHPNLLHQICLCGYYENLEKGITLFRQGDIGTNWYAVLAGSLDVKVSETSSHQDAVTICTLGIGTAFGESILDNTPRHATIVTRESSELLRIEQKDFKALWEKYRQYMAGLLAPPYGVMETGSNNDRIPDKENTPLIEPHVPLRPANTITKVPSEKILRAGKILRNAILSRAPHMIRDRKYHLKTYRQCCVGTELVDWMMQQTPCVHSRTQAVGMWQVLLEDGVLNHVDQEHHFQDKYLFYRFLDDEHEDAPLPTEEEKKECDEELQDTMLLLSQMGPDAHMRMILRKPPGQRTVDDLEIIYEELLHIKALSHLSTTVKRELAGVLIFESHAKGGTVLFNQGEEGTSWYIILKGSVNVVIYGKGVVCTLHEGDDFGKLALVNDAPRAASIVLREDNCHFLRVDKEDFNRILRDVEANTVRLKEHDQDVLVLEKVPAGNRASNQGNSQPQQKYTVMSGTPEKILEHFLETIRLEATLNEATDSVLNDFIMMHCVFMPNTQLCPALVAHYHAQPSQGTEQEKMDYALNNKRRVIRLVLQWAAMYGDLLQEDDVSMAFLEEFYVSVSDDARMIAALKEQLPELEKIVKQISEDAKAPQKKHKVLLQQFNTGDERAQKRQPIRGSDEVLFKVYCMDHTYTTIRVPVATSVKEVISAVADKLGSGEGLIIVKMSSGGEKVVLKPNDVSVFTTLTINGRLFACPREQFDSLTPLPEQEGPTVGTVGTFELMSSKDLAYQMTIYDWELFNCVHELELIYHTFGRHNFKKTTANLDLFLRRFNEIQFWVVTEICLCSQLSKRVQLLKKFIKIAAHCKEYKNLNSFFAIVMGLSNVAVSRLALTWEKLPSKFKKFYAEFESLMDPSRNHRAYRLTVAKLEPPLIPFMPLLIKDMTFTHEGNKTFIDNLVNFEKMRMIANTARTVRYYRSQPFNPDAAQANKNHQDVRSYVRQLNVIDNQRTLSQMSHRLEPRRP

For this assay, the target named is Rap guanine nucleotide exchange factor 4 (Homo sapiens) (UniProt Q8WZA2). In words: Validation qHTS for agonist of cAMP-regulated guanine nucleotide exchange factor 4 (EPAC2).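 Note: exchange makes BODIPY-GDP fluorescence drop when released from Rap1B; series mostly up to about 150 µM.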 Conditions: EPAC2 Rap1B BODIPY-GDP exchange, fluorescence; activation: hits give high values. The method, boiled down:
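Signal normalized against 6.5 mM cAMP as agonist control. Mix of EPAC2 (100 nM), RAP1B-BODIPY-GDP (250 nM) and GDP (50 uM) was read kinetically at 480/540 nm, every 5 min over 30 min, after 5 min room-temperature incubation with compound.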
Background: In qHTS, concentration-response curves come from the screen itself.
Turning to `COCCCCCCCCCCCC(=O)O`, the activation was inactive: -18%. As for `C=CC1(C)CC(=O)C2(O)C(C)(O1)C(OC(C)=O)C(O)C1C(C)(C)CCC(O)C12C` (centres undefined), the activation is inactive: 15.7%. Turning to `NCCNCCN`, the activation was inactive: 2.01%. The same measure for `COc1ccccc1-c1cc(Nc2ccc(F)cc2)ncn1`: inactive: -14.7%; for `CC(C)CN1CCC2(CC1)CCN(C(=O)c1cnccn1)CC2`: inactive: -11.5%; for `Nc1ncnc2c1c(-c1ccc(Oc3ccccc3)cc1)cn2C1CCCC1`: inactive: -38.5%. The same measure for `COc1ccc2c3c1OC1CC(O)C=C[C@@]31CCN(C)C2` (some centres undefined): inactive: -2.88%; for `Cc1noc(C)c1C(=O)N1CCC[C@@]2(CCN(c3ncccn3)C2)C1`: inactive: -7%; for `O=Cc1ccc(Cl)cc1`: inactive: -8.69%. The same measure for `CN1CCC[C@@H]1c1cccnc1`: inactive: -3.02%; for `O=C(Nc1ccccc1)N1CC[C@@]2(CCCN(C(=O)c3ccncc3)C2)C1`: inactive: -1.1%; for `CC(C)c1ccc(CN2CCC3(CCC(CNC(=O)c4ccn(C)n4)O3)CC2)cc1` (centres undefined): inactive: -7.2%. `C=CC1=C(C)C2=CC3=NC(=C(CC(=O)[O-])C4=NC(=C(C)C4=C([O-])[O-])C=c4[n-]c(c(C)c4CC)=CC1=N2)C(CCC(=O)[O-])C3C.[Cu+2].[Na+].[Na+].[Na+]` (centres undefined): the activation is inactive: -19.1%. The same measure for `COCC1CCCN(Cc2ccc3c(c2)CN(C(=O)c2cc(-c4ccccc4)n[nH]2)CCO3)C1` (centres undefined): inactive: -12.3%. With `CC(C)NC[C@@H](O)COc1cccc2ccccc12`, the activation is inactive: -1.65% [middle of 4 runs].

In the case of `CC(=O)Oc1ccc2c(c1)CCC1C2CC[C@@]2(C)C1CC(OC(C)=O)C2OC(C)=O` (some centres undefined), the activation was inactive: -4.15%. The same measure for `CCc1cn([C@H]2C[C@H](O)[C@@H](CO)O2)c(=O)[nH]c1=O`: inactive: 3.2%; for `COC(=O)[C@H](CC(C)C)NS(=O)(=O)N[C@@H](CC(C)C)C(=O)OC`: inactive: -28.5%.

Consider `COc1ccccc1CNc1ncnc2ccc(-c3cccc(C#N)c3)cc12`, for which the activation was inactive: -0.576%. Regarding `O=S(=O)(O)NC1CCCCC1`, the activation is inactive: -16.2%. Turning to `CN(Cc1ccco1)C(=O)c1cc(NC(=O)C2CCC2)c2c(c1)nc(-c1ccncc1)n2C`, the activation was inactive: -9.71%. The same measure for `COc1cc(=O)n2c(c1C(=O)NC(C)c1ccco1)CCN(Cc1ccnc3ccccc13)CC2` (centres undefined): inactive: -7.02%; for `CC1(C)[C@H]2CC[C@]1(C)[C@H](O)C2`: inactive: -5.52%; for `COc1cc(OC)c(/C=C/c2ccc3ccccc3n2)c(OC)c1`: inactive: -5.28%.

With `COc1ccccc1-c1nc2cc(C(=O)NC[C@H]3CCc4ccccc4O3)cc(NC(C)=O)c2n1C`, the activation was inactive: -20.1%. Regarding `Cc1noc(C)c1CC(=O)NCC1Cc2cc(-c3cccc(OC(F)(F)F)c3)ccc2O1` (centres undefined), the activation was inactive: -39.8%. The value for `COCc1c(C(=O)N2CCN(C3CCCC3)CC2)cnn1-c1nccc(-c2cccs2)n1` was inactive: 1.9%; that for `CC1(C)[C@@H](O)CC[C@]2(C)C3C(=O)C=C4C5C[C@@](C)(C(=O)O)CC[C@]5(C)CC[C@@]4(C)[C@]3(C)CC[C@@H]12` (some centres undefined) was inactive: 7.05%; that for `Cc1cccc(CNC(=O)c2cnn(-c3nccc(-c4ccccc4F)n3)c2C2CC2)n1` was inactive: -19%.

Regarding `Cc1cc(-c2ccc(N=Nc3c(S(=O)(=O)O)cc4cc(S(=O)(=O)O)cc(N)c4c3O)c(C)c2)ccc1N=Nc1c(S(=O)(=O)O)cc2cc(S(=O)(=O)O)cc(N)c2c1O`, the activation is inactive: -32.7%. The same measure for `CC(NC(=O)c1ccco1)c1nnc2n1CCN(Cc1ccc(N3CCCC3)cc1)CC2` (centres undefined): inactive: -1.63%.

In the case of `Cc1ccccc1-c1nccc(NCc2cccs2)n1`, the activation was inactive: -8.47%. In the case of `CCC1CN(CCNC(=O)c2cccc3nccnc23)Cc2cc(OC)ccc2O1` (centres undefined), the activation was inactive: -4.63%. The same measure for `COc1ccc(CNc2nc(-c3ccc(N(C)C)cc3)nc3ccccc23)c(OC)c1`: inactive: -12.3%. The value for `COc1ccccc1CN1CCCC2(CCNCC2)C1` was inactive: -10.4%; that for `O=c1cnc2cnc(Oc3ccccc3)nc2n1C1CC1` was inactive: 3.29%. The value for `OC1C(O)C(O)C(O)C(O)C1O` (centres undefined) was inactive: -9.31%; that for `CN=C(NC)NCc1ccccc1` was inactive: 1.03%. Regarding `Nc1nc2ccc(Cl)cc2c2nc(-c3ccco3)nn12`, the activation is inactive: -6.6% and inactive: 9.44% and inactive: -10.6%. The value for `CC(C)(CNC(=O)c1cnn(-c2ncc3c(n2)-c2ccccc2CC3)c1C1CC1)N1CCOCC1` was inactive: -16.6%.

For `C=C[C@@H]1c2cc(C)ccc2N(S(=O)(=O)c2ccc(C)cc2)[C@H](c2ccccc2C(F)(F)F)C1(C#N)C#N`, the activation was inactive: -17.7%. The value for `CCCCC/C=C\C[C@@H](O)/C=C/C=C/C=C\[C@@H](O)CCCC(=O)O` was inactive: -2.51%; that for `Cc1[nH]cnc1C[C@H]1CCc2c(C)c3ccccc3n2C1=O` was inactive: -32.2%; that for `CCC(C)N(C)C(=O)c1cc2ccccc2c(-c2ccccc2Cl)n1` (centres undefined) was inactive: 5.22% and inactive: -7.11%. Turning to `COc1ccc(-c2nc3cnc(N4CCNCC4)nc3n(CCC#N)c2=O)cc1`, the activation is inactive: -4.12%. In the case of `Cc1ccc2c(c1)cc(CN(C)Cc1nc(C)cs1)c(=O)n2C`, the activation is inactive: 16.8%. The same measure for `Cc1cnc(CNc2ncnc3ccc(-c4ccccc4CN(C)C)cc23)cn1`: inactive: -16.6%; for `COc1cc2c(cc1C(F)(F)F)N(C(=O)Nc1cc(F)cc(-c3cccnc3)c1)CC2`: inactive: -14.9%. The same measure for `COc1ccc(Oc2ncc3ncc(=O)n(C4CC4)c3n2)cc1`: inactive: -16.2%; for `CN(C)Cc1ccccc1-c1ccc2ncnc(N(C)C)c2c1`: inactive: -5.89%; for `O=C(C[N+]1(CC(O)c2ccccc2)CCOCC1)c1ccccc1` (centres undefined): inactive: -18.6%.

On to `COc1cc(=O)n2c(c1C(=O)N(C)Cc1nonc1C)CCN(C(=O)c1cccc(C)c1C)CC2`, for which the activation is inactive: 7.36%.

With `C[C@H](CCC(=O)O)C1CC[C@H]2C3CC[C@@H]4C[C@H](O)CC[C@]4(C)C3C[C@H](O)[C@]12C` (some centres undefined), the activation is inactive: -16%. For `COc1ccccc1CNc1nc(-c2cccc(NS(C)(=O)=O)c2)nc2ccccc12`, the activation is inactive: 1.46%.
